Experimental data from a collection of fitness landscapes (doi:10.1126/science.1257360).
This is one part of the list.

B1: PhoQ; a variant is named by its letters at X, in order, P23837 (parent)
chain: MKKLLRLFFPLSLRVRFLLATAAVVLVLSLAYGMVALIGYSVSFDKTTFRLLRGESNLFYTLAKWENNKLHVELPENIDKQSPTMTLIYDENGQLLWAQRDVPWLMKMIQPDWLKSNGFHEIEADVNDTSLLLSGDHSIQQQLQEVREDDDDAEMTHSVAVNVYPATSRMPKLTIVVVDTIPVELKSSYMVWSWFIYVLSANLLLVIPLLWVAAWWSLRPIEALAKEVRELEEHNRELLNPATTRELTSLVRNLNRLLKSERERYDKYRTTLTDLTHSLKTPLXXLQXXLRSLRSEKMSVSDAEPVMLEQISRISQQIGYYLHRASMRGGTLLSRELHPVAPLLDNLTSALNKVYQRKGVNISLDISPEISFVGEQNDFVEVMGNVLDNACKYCLEFVEISARQTDEHLYIVVEDDGPGIPLSKREVIFDRGQRVDTLRPGQGVGLAVAREITEQYEGKIVAGESMLGGARMEVIFGRQHSAPKDE

Variants of: B1
Test: enrichment ratio after two sorts for PhoP signalling (ratio (wild type AVST 3.29)); higher = more functional
Conditions: with PhoP (E. coli)
For RQKT, the enrichment ratio was no more than 0.25. DIVE gave an enrichment ratio of no more than 0.25. IPRG showed an enrichment ratio of no more than 0.25. Work on NQWS yielded an enrichment ratio of no more than 0.25. In the case of DIYY, the enrichment ratio is reported as no more than 0.25. Work on GFVP yielded an enrichment ratio of no more than 0.25. With TRFG the enrichment ratio was no more than 0.25. IHCG gave an enrichment ratio of no more than 0.25. Variant RQSQ has an enrichment ratio of no more than 0.25. In the case of KAGM, the enrichment ratio is reported as no more than 0.25. KTNY gave an enrichment ratio of no more than 0.25. For DGWH, the enrichment ratio was no more than 0.25. With REIE the enrichment ratio was no more than 0.25. ILQG gave an enrichment ratio of no more than 0.25. With NTMT the enrichment ratio was no more than 0.25. For CHFA, the enrichment ratio was no more than 0.25. For TQQV, the enrichment ratio was 6.6. In the case of VYFE, the enrichment ratio is reported as no more than 0.25. For VLED, the enrichment ratio was no more than 0.25. PCLV gave an enrichment ratio of no more than 0.25. For GSSD, the enrichment ratio was no more than 0.25. VEEY gave an enrichment ratio of no more than 0.25. Work on PMLF yielded an enrichment ratio of no more than 0.25. LEFG gave an enrichment ratio of 10.6. VYAS gave an enrichment ratio of no more than 0.25. FVNG was tested, and the enrichment ratio was no more than 0.25. Work on AYAP yielded an enrichment ratio of no more than 0.25. With YANV the enrichment ratio was no more than 0.25. In the case of RARP, the enrichment ratio is reported as no more than 0.25. KKHN gave an enrichment ratio of no more than 0.25. For HPRT, the enrichment ratio was no more than 0.25. For DCGW, the enrichment ratio was no more than 0.25. In the case of VSNG, the enrichment ratio is reported as no more than 0.25. With TWNQ the enrichment ratio was no more than 0.25. In the case of PDAT, the enrichment ratio is reported as no more than 0.25. For QSKI, the enrichment ratio was no more than 0.25. PLTA showed an enrichment ratio of no more than 0.25. GQEL was tested, and the enrichment ratio was no more than 0.25. Work on NHMM yielded an enrichment ratio of no more than 0.25. Work on KIKP yielded an enrichment ratio of no more than 0.25. For NQTM, the enrichment ratio was no more than 0.25. Variant TGGN has an enrichment ratio of 13.9. Variant LTLN has an enrichment ratio of no more than 0.25. RIND gave an enrichment ratio of no more than 0.25. MMNC was tested, and the enrichment ratio was no more than 0.25. In the case of YYLL, the enrichment ratio is reported as no more than 0.25. YAWS gave an enrichment ratio of no more than 0.25. With GRYH the enrichment ratio was no more than 0.25. Work on PPYL yielded an enrichment ratio of no more than 0.25. YCFK was tested, and the enrichment ratio was no more than 0.25. For WELP, the enrichment ratio was no more than 0.25. LIER gave an enrichment ratio of no more than 0.25. Work on MYMY yielded an enrichment ratio of no more than 0.25. QFPC was tested, and the enrichment ratio was no more than 0.25. Variant YESC has an enrichment ratio of no more than 0.25. Variant ERLE has an enrichment ratio of no more than 0.25. SLPY was tested, and the enrichment ratio was no more than 0.25. TRAT showed an enrichment ratio of no more than 0.25. Variant AWGY has an enrichment ratio of no more than 0.25. NYGE gave an enrichment ratio of no more than 0.25. Variant ICRG has an enrichment ratio of no more than 0.25. In the case of MFVI, the enrichment ratio is reported as no more than 0.25. RMGM gave an enrichment ratio of no more than 0.25. In the case of AWHH, the enrichment ratio is reported as no more than 0.25. In the case of KPKI, the enrichment ratio is reported as no more than 0.25. Work on HQKR yielded an enrichment ratio of no more than 0.25. Variant QGHY has an enrichment ratio of 10.4. GTPS was tested, and the enrichment ratio was no more than 0.25. In the case of RGPD, the enrichment ratio is reported as no more than 0.25. For RPPN, the enrichment ratio was no more than 0.25. For QMFH, the enrichment ratio was no more than 0.25. Variant KQCS has an enrichment ratio of no more than 0.25. For PMGQ, the enrichment ratio was no more than 0.25. With FQCA the enrichment ratio was no more than 0.25. HILF was tested, and the enrichment ratio was no more than 0.25. NQHG was tested, and the enrichment ratio was no more than 0.25. In the case of NDSI, the enrichment ratio is reported as no more than 0.25. For SACH, the enrichment ratio was 3.76. VKAC was tested, and the enrichment ratio was no more than 0.25. Variant RGYM has an enrichment ratio of no more than 0.25. NWQY gave an enrichment ratio of no more than 0.25. LEVI showed an enrichment ratio of no more than 0.25. For YWLW, the enrichment ratio was no more than 0.25. VCGR was tested, and the enrichment ratio was no more than 0.25. FDGN was tested, and the enrichment ratio was no more than 0.25. WEQP gave an enrichment ratio of no more than 0.25. In the case of MTWR, the enrichment ratio is reported as no more than 0.25. LRQA gave an enrichment ratio of no more than 0.25. Variant LKRA has an enrichment ratio of no more than 0.25. With KEGC the enrichment ratio was no more than 0.25. For FLMV, the enrichment ratio was no more than 0.25. ACFM showed an enrichment ratio of no more than 0.25. Variant LGCE has an enrichment ratio of no more than 0.25. Work on TASC yielded an enrichment ratio of 12.7. Work on VAGY yielded an enrichment ratio of 1.53. Variant NETM has an enrichment ratio of no more than 0.25. With PTNM the enrichment ratio was no more than 0.25. With DRMP the enrichment ratio was no more than 0.25. Work on QFHS yielded an enrichment ratio of no more than 0.25. With QATW the enrichment ratio was no more than 0.25. PWNT was tested, and the enrichment ratio was no more than 0.25. MACW gave an enrichment ratio of no more than 0.25. In the case of GRPV, the enrichment ratio is reported as no more than 0.25. Work on PKSW yielded an enrichment ratio of no more than 0.25. For AWMS, the enrichment ratio was no more than 0.25. For NLHQ, the enrichment ratio was no more than 0.25. MRRY was tested, and the enrichment ratio was no more than 0.25. PLTP gave an enrichment ratio of no more than 0.25. Work on KINA yielded an enrichment ratio of no more than 0.25. Work on HCGD yielded an enrichment ratio of no more than 0.25. VYWY showed an enrichment ratio of no more than 0.25. For WALC, the enrichment ratio was 1.58. Variant RWLC has an enrichment ratio of no more than 0.25. With EKDP the enrichment ratio was no more than 0.25. SSIW gave an enrichment ratio of no more than 0.25. MQGM gave an enrichment ratio of no more than 0.25. In the case of RAFN, the enrichment ratio is reported as 0.299. WMHE gave an enrichment ratio of no more than 0.25. With AACY the enrichment ratio was no more than 0.25. TNFS was tested, and the enrichment ratio was no more than 0.25. For MTYM, the enrichment ratio was 5.64. For MPVW, the enrichment ratio was no more than 0.25. IPAV was tested, and the enrichment ratio was no more than 0.25. In the case of VDAS, the enrichment ratio is reported as no more than 0.25. FPGY was tested, and the enrichment ratio was no more than 0.25. MSSW showed an enrichment ratio of no more than 0.25. For KVMF, the enrichment ratio was no more than 0.25. PKGD showed an enrichment ratio of no more than 0.25. Variant EQNC has an enrichment ratio of no more than 0.25. ARRQ showed an enrichment ratio of no more than 0.25. Work on WSVP yielded an enrichment ratio of no more than 0.25. Work on DSCK yielded an enrichment ratio of no more than 0.25. Work on FNVT yielded an enrichment ratio of no more than 0.25. KCAY was tested, and the enrichment ratio was no more than 0.25. Variant ELDV has an enrichment ratio of no more than 0.25. Variant RFVW has an enrichment ratio of no more than 0.25. IAVD gave an enrichment ratio of no more than 0.25. RGGR showed an enrichment ratio of no more than 0.25. SQCR showed an enrichment ratio of 5.05. In the case of KYGK, the enrichment ratio is reported as no more than 0.25. In the case of DSQE, the enrichment ratio is reported as no more than 0.25. With PCWI the enrichment ratio was no more than 0.25. KCIC gave an enrichment ratio of no more than 0.25. QCHY gave an enrichment ratio of no more than 0.25. With VWGP the enrichment ratio was no more than 0.25. RFNM showed an enrichment ratio of no more than 0.25. EGEF showed an enrichment ratio of no more than 0.25. For SYNV, the enrichment ratio was no more than 0.25. Work on KKGT yielded an enrichment ratio of no more than 0.25. LEVL was tested, and the enrichment ratio was no more than 0.25. With HQNF the enrichment ratio was no more than 0.25. Work on RPAD yielded an enrichment ratio of no more than 0.25. In the case of MRTT, the enrichment ratio is reported as no more than 0.25.
